Assay results reported in article PMC9122603.
No constants are given. Whether binding was seen depends on the method and setting. Binding seen in cells or lysates may run through a third protein. Some entries that bind do so weakly or less than the wild type.

Chains of the proteins cited; added tags and fusions are not shown.
UniProt P05412: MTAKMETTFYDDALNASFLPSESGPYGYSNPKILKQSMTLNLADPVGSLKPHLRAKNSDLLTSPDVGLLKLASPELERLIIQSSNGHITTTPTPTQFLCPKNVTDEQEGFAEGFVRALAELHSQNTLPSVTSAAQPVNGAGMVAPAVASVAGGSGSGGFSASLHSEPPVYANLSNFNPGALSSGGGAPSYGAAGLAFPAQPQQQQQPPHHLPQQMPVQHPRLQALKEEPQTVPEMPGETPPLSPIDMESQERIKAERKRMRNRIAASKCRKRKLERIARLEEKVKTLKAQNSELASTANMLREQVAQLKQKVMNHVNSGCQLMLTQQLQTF
UniProt Q01196: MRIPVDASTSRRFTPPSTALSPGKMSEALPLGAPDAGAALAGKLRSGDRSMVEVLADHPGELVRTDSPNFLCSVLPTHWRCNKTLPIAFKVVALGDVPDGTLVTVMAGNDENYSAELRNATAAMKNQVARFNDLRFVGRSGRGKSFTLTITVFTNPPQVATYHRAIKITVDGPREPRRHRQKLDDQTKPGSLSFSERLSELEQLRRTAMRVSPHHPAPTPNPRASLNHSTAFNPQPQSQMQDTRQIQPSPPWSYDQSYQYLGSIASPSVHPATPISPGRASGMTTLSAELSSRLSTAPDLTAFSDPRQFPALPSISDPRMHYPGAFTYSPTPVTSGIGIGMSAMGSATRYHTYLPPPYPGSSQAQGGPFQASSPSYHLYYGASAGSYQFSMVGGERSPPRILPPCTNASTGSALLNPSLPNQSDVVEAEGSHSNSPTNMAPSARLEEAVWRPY
UniProt P40763: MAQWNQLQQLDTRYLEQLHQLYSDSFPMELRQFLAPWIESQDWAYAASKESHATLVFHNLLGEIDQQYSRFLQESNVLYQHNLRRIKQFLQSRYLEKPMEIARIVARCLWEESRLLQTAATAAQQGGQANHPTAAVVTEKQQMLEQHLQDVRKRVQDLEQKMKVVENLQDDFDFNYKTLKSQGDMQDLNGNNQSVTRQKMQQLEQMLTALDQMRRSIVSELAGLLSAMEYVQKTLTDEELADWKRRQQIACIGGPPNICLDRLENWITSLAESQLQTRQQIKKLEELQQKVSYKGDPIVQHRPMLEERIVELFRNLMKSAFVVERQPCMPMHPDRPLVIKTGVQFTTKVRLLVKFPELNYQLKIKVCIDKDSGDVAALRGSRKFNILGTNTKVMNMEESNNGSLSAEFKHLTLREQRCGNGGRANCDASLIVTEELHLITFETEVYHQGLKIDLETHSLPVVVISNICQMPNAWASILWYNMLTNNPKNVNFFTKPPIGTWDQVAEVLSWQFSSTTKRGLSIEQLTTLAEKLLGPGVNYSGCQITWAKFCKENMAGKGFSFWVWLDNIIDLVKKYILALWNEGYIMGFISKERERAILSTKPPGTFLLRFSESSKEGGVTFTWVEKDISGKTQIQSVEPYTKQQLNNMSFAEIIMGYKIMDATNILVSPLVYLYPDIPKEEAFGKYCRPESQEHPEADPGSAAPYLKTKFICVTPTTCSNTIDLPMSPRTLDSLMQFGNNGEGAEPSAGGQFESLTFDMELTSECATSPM

B1: JUNB (protein, UniProt P17275 1-347)
chain: MCTKMEQPFYHDDSYTATGYGRAPGGLSLHDYKLLKPSLAVNLADPYRSLKAPGARGPGPEGGGGGSYFSGQGSDTGASLKLASSELERLIVPNSNGVITTTPTPPGQYFYPRGGGSGGGAGGAGGGVTEEQEGFADGFVKALDDLHKMNHVTPPNVSLGATGGPPAGPGGVYAGPEPPPVYTNLSSYSPASASSGGAGAAVGTGSSYPTTTISYLPHAPPFAGGHPAQLGLGRGASTFKEEPQTVPEARSRDATPPVSPINMEDQERIKVERKRLRNRLAATKCRKRKLERIARLEDKVKTLKAENAGLSSTAGLLREQVAQLKQKVMTHVSNGCQLLLGVKGHAF
B2: IRF4 (protein, UniProt Q15306 1-451)
chain: MNLEGGGRGGEFGMSAVSCGNGKLRQWLIDQIDSGKYPGLVWENEEKSIFRIPWKHAGKQDYNREEDAALFKAWALFKGKFREGIDKPDPPTWKTRLRCALNKSNDFEELVERSQLDISDPYKVYRIVPEGAKKGAKQLTLEDPQMSMSHPYTMTTPYPSLPAQQVHNYMMPPLDRSWRDYVPDQPHPEIPYQCPMTFGPRGHHWQGPACENGCQVTGTFYACAPPESQAPGVPTEPSIRSAEALAFSDCRLHICLYYREILVKELTTSSPEGCRISHGHTYDASNLDQVLFPYPEDNGQRKNIEKLLSHLERGVVLWMAPDGLYAKRLCQSRIYWDGPLALCNDRPNKLERDQTCKLFDTQQFLSELQAFAHHGRSLPRFQVTLCFGEEFPDPQRQRKLITAHVEPLLARQLYYFAQQNSGHFLRGYDLPEHISNPEDYHRSIRHSSIQE

What follows are molecules tested against T1, BATF (human (endogenous in Th17 cells from cord blood CD4+ T-cells)) (UniProt Q16520) (assay: co-IP; endogenous BATF immunoprecipitated from 72 h-polarized human Th17 cultures; partners detected by immunoblot; three biological replicates).
T1 sequence: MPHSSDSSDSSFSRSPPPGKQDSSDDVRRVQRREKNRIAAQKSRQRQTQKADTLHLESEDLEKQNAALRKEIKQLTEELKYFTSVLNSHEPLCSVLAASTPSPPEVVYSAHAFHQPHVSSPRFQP
In the case of JUN (from UniProt P05412 1-331), the binding is reported as “binds”.
In the case of RUNX1 (from UniProt Q01196 1-453), the binding is reported as “binds”.
For STAT3 (from UniProt P40763 1-770), the binding was “no binding”.
In the case of B1, the binding is reported as “binds”.
For B2, the binding was “no binding”.
